Measured values: the supplement of paper PMC11417369
± gives the standard deviation of the averaged measurements. This is one part of the list.

The sequences below were run on PfAP2-I AP2 domain 3 (GST-tagged) (assay: gcPBM binding intensity (ln(normalized median fluorescence intensity)); higher = stronger DNA binding).
Procedure, shortened: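 Probes on an Agilent 4 × 180k array were primer-extended, double-stranded and 36 bp long, taken from intergenic genomic regions, with negative controls added. GST-tagged P. falciparum DNA-binding domains from E. coli, about 25 μg on average, were applied to the array for 1 h in 1× PBS containing 1% milk, 0.2 mg/ml BSA, 0.5% salmon testes DNA and 0.03% Triton X-100. Binding intensity, obtained after Alexa488 anti-GST antibody detection and a 488 nm scan, is the highest Masliner-normalised natural-log median intensity across replicate spots of either probe orientation.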

Sequence | gcPBM binding intensity (ln)
GCGTTGTTTTTAAAAAGTACATTTTTATATAAGTTA [XGTACX_site8780] | 7.92 ± 0.5
TATATATATATATAATGTACACATTTTTATAACTAT [XGTACX_site5714] | 9.21 ± 0.28
CTTAATATATGTGGCACACATGTGGAGTCCTATTAA [CACACA_site4281] | 8.28 ± 0.45
AAAAAAATATTAATGTGTACATAATAATAACATATA [XGTACX_site8319] | 7.75 ± 0.13
AAGAGTAAAATATGGTTGCACTAAAAATATATATTT [GTGCAC_site9484] | 9.36 ± 0.13
ATAATAAAAATATACTGTACATTTGTAAATTCTTTT [XGTACX_site4655] | 7.5 ± 0.43
TAAAACATATAAAGGTGTACGCCTTTTTGTATCAAT [XGTACX_site6064] | 7.82 ± 0.39
TTATAGAGCTTATTCACACATACATATGTATTTATA [CACACA_site5775] | 7.93 ± 0.52
GTCTACTACACTAAATGTACAAGAAAAAAGAAAAAA [XGTACX_site4660] | 7.97 ± 0.35
TATATTTGTTGACACACACACAAAAAAAAAAAAAAA [CACACA_site7211] | 8.19 ± 0.56
GTAGATATTTATTGAGTGCATGTTATAAAGGGAAAA [GTGCAC_site9481] | 8.99 ± 0.29
TTTTTATTTTTTTACAGTACATAAAATAAATAAATA [XGTACX_site6596] | 7.82 ± 0.36
TTTTTTTTATGGAAACGTACATACATACATTAAAGA [XGTACX_site7401] | 7.83 ± 0.52
TATTTATATATTTATGCATGTTATAGGCAAAAATGT [TGCATGCA_site397] | 7.89 ± 0.64
TATATTGATGATGATAGTACGTATGAATACAAAAAA [XGTACX_site4] | 7.88 ± 0.65
CATAATAAGTATAACGTTAGTTACAAACAGCTTGTT [CACACA_negctrl_site937] | 7.53 ± 0.74
TTTTTAAATAAATGTTTTTATTATATACATATCAAT [TGCATGCA_negctrl_site423] | 7.33 ± 0.62
AAAATAATGTATATAGTGCAAATGAAAACGAAAAAA [GTGCAC_site9455] | 10.32 ± 0.085
TATTATTCAAAATTTGTGCACAAAATTAAAGGAACA | 10.8 ± 0.27

Sequence | gcPBM binding intensity (ln)
TTTGTTTTTTTGAGAGTGCAATATATATAAAAAGGG [GTGCAC_site9691] | 11.2 ± 0.64
TTGGTGATATTTTTCTCACACATTTACCAGAGATGT [CACACA_site4684] | 7.63 ± 0.52
ATTAGATATGTAAACTAAAATTATATTCATGATAAT [TGCATGCA_negctrl_site182] | 7.44 ± 0.45
TCTAACAACATGCGCACACACATGAATATTCATATT [CACACA_site1540] | 8.63 ± 0.33
ATATTTTTATTTTCTTTACACACCACATAATTTTTT [CACACA_site4060] | 8.35 ± 0.47
TCACATCTTATATACTGTACATTTCGAATATAAATT [XGTACX_site2508] | 8.01 ± 0.59
TTTCTTTTACATATTTGTACATATATAAATTTATAT [XGTACX_site1787] | 8.37 ± 0.48
AAAAAAAAAAAAATATGTACTTATTTTTATGTTAAA [XGTACX_site8802] | 7.75 ± 0.22
TTCTTTAATACTTATTGTACAATATAATAATCACAA [XGTACX_site6364] | 8.26 ± 0.3
TACTATATAAGTAAGGCATGCATGCCGATTTTTTTA [TGCATGCA_site100] | 7.45 ± 0.69
TGAAACCGTTACATGTGTACATATGTTACACATAAT [XGTACX_site7250] | 7.83 ± 0.4
TACTTAAAATATTTAACAAATAAATAAATAAATAAA [XGTACX_negctrl_site523] | 8.04 ± 1
ATCAATTTAATTTATTGTACTTGTTTGTTTTTTTAT [XGTACX_site7544] | 7.71 ± 0.51
GATAACATAATATGTTGTACATAAAAATTTTTATCA [XGTACX_site1969] | 8.04 ± 0.47
ATAAAGATATGACACACACACATATTATAGATATAT [CACACA_site7434] | 8.08 ± 0.4
AACTTATTTAAATTCACACATATATAAAATACTTAT [CACACA_site4394] | 7.8 ± 0.79
ACATATGACTATAATACACACTTGTATTATTAATAT [CACACA_site6951] | 7.95 ± 0.73
TAATTTAAACAAAAAAGTACAAATTTCTTTTTATTA [XGTACX_site5244] | 7.32 ± 0.38
ATTATTTTATTATAGTGTACTTTTTTAATCAAAGGA [XGTACX_site8921] | 7.95 ± 0.4

Sequence | gcPBM binding intensity (ln)
AATTTTATTACTTTTACACACCTATATATTATTCAT [CACACA_site3273] | 8.37 ± 0.4
TTTTAAAAAAAATATAAAAAAAGAGGAGGGATGGTA [GTGCAC_negctrl_site35] | 8 ± 0.49
TACTCATAATATTGATAATTAAAAAGATAAACTATT [XGTACX_negctrl_site299] | 7.36 ± 0.37
ATTTTAATTACATATACACACAAAGGTTCATAACAA [CACACA_site9008] | 7.9 ± 0.41
TATGTTTTTACGTGTGTGCACTTTGTAGAGATAAGT | 10.3 ± 0.18
GCCAAAAGGATATGCACACACACACCCATATATATA [CACACA_site2198] | 9.1 ± 0.23
CATTATCATGTTTTTTGTACTCATAATAAAAAGCAG [XGTACX_site2056] | 8.03 ± 0.21
CAAGGAACCGGACACACACACATAAATGTATTTATA [CACACA_site4574] | 7.71 ± 0.46
AAAAATGAATTATTTTGTACATATATATATATATAT [XGTACX_site3410] | 9.48 ± 0.54
AATAATTGTTAAAGTTGTACTATACGTATATAAGAA [XGTACX_site1432] | 8.16 ± 0.32
TATATATAGAAACACACACACACCAAAGCGTAGCGC [CACACA_site62] | 7.59 ± 0.69
ATTTACAAAAGGAAAGTGCAAACATGTGATTAAACA [CACACA_negctrl_site714] | 9.34 ± 0.16
TTAATTATAAGAAAAAGTACTCATTACATTATAGAA [XGTACX_site678] | 7.85 ± 0.21
ATATAAATATTCCACACACACACAAAAAAAAAAAAA [CACACA_site7678] | 8.07 ± 0.51
TAGTCGTTTTTTTAATGTACTCACGCATAATATAAT [XGTACX_site6499] | 8.04 ± 0.34
AAAGGATATAGACACACACACACATATATATATATA [CACACA_site2200] | 9.57 ± 0.32
GTTCAAAATATGAACACACACATATAGATTTATATA [CACACA_site7054] | 7.53 ± 0.38
ATCATTTTTAAAGGAACACACAAAAAAAATTAGAAT [CACACA_site1370] | 7.83 ± 0.73
CATATACATCCACATACACACATACACCCATACACA [CACACA_site5038] | 8.35 ± 0.057
